# This is one part of the list. Values were computed here from the reads of four pooled replicates and scatter widely.
# Molecular target: T1, Pho4 (S. cerevisiae) (UniProt P07270)
# T1 sequence: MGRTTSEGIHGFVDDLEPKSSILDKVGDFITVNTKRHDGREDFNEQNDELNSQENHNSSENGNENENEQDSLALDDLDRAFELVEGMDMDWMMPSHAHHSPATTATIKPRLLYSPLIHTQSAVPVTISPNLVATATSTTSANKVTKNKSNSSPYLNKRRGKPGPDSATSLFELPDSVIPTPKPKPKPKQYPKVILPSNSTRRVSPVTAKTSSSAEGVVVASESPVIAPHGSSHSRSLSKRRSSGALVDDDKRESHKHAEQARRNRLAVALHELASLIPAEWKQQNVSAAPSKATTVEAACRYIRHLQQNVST
# Assay: relative binding free energy (BET-seq); higher = weaker binding
# Details: reference: library average
row,Sequence,relative binding free energy
1,GGGTGCACGTGATATT,0.15 kcal/mol
2,TAAATCACGTGGTATG,-0.11 kcal/mol
3,GTATTCACGTGAGGTA,0.28 kcal/mol
4,TGTTGCACGTGTTATG,0.03 kcal/mol
5,TGTTACACGTGGGAGA,0.03 kcal/mol
6,CTTAACACGTGGGGTA,-0.16 kcal/mol
7,AATTCCACGTGTGGTT,0.12 kcal/mol
8,TTATGCACGTGCTCTG,-0.12 kcal/mol
9,TGTTGCACGTGTGCTA,0 kcal/mol
10,AGGTGCACGTGGTCTT,-0.11 kcal/mol
11,GGGCACACGTGGTGCA,0.12 kcal/mol
12,ATATTCACGTGGTGCA,0.05 kcal/mol
13,GTTTTCACGTGCTTAG,0.22 kcal/mol
14,AGTGGCACGTGAGATG,0.08 kcal/mol
15,GTAAGCACGTGTGGAA,0.11 kcal/mol
16,GTTTTCACGTGATCAT,0.33 kcal/mol
17,AATTGCACGTGGCGAT,0.11 kcal/mol
18,TGTGTCACGTGGGCGG,-0.02 kcal/mol
19,AATCGCACGTGGGTAG,-0.14 kcal/mol
20,TATGGCACGTGTGATT,0.11 kcal/mol
21,CTGGGCACGTGGAGTC,-0.06 kcal/mol
22,AAGGTCACGTGTACTT,0.07 kcal/mol
23,TTTCGCACGTGCAGGT,0.01 kcal/mol

row,Sequence,relative binding free energy
1,TGCATCACGTGGTTTC,0.21 kcal/mol
2,TGGACCACGTGTGGTT,0.05 kcal/mol
3,CTGTGCACGTGTATAG,-0.09 kcal/mol
4,GTCAACACGTGGAGTT,0.18 kcal/mol
5,TGTAACACGTGGTCTT,-0.22 kcal/mol
6,TGTTGCACGTGTCGAG,0.08 kcal/mol
7,TATGTCACGTGCCGGG,-0.1 kcal/mol
8,CTCGGCACGTGGGGGC,-0.28 kcal/mol
9,GGGTCCACGTGTTATT,0 kcal/mol
10,GTGGGCACGTGTTTGG,0.01 kcal/mol
11,AGAAGCACGTGGTTTA,-0.08 kcal/mol
12,CGGAGCACGTGTGTGC,-0.1 kcal/mol
13,TTTTACACGTGAAGGA,0.43 kcal/mol
14,CTTGTCACGTGTGGTG,0.11 kcal/mol
15,TGTGACACGTGAAATT,0.15 kcal/mol
16,ATTCGCACGTGTTAGG,-0.04 kcal/mol
17,ATGTCCACGTGGCGGG,-0.18 kcal/mol
18,TTTATCACGTGTTGAC,0.29 kcal/mol
19,TTTAGCACGTGTATCT,0.09 kcal/mol
20,ATCGGCACGTGCGTTG,-0.19 kcal/mol
21,CGAGGCACGTGTGGTC,0.07 kcal/mol
22,GGAAACACGTGTCGGG,0 kcal/mol
23,GTGTGCACGTGTAGGG,0.03 kcal/mol

row,Sequence,relative binding free energy
1,ACGGTCACGTGTGCGT,0.12 kcal/mol
2,GAAAGCACGTGAGAGG,0.26 kcal/mol
3,TGTCTCACGTGGGGAT,0.11 kcal/mol
4,GATTTCACGTGGGCAA,0.23 kcal/mol
5,ATTGTCACGTGGCTAG,0.13 kcal/mol
6,CGTAGCACGTGTTAGT,-0.08 kcal/mol
7,GGGAACACGTGAGGTA,0.26 kcal/mol
8,GCGTACACGTGTTTGT,0.01 kcal/mol
9,ATGTACACGTGGGTCT,-0.14 kcal/mol
10,GGATCCACGTGAGGGT,0.27 kcal/mol
11,ACAGGCACGTGGGTTG,-0.34 kcal/mol
12,TGGTGCACGTGTTTAT,0.05 kcal/mol
13,ATTCACACGTGGGTTG,-0.01 kcal/mol
14,TACGACACGTGAGTGT,0.27 kcal/mol
15,TTAGTCACGTGTGCTA,-0.06 kcal/mol
16,TGTGACACGTGTTTAT,-0.07 kcal/mol
17,ATGTTCACGTGTGCCG,0.17 kcal/mol
18,TTTTTCACGTGCCTTA,0.28 kcal/mol
19,AGAATCACGTGAGAGT,0.32 kcal/mol
20,CTAGGCACGTGGGTAA,-0.17 kcal/mol
21,GCGGGCACGTGTGTAG,0.03 kcal/mol
22,CGGGTCACGTGCGAGT,0.06 kcal/mol
23,TATAACACGTGGATGA,-0.03 kcal/mol

row,Sequence,relative binding free energy
1,TGTAACACGTGGTGGA,-0.16 kcal/mol
2,GGGAGCACGTGGGTCC,-0.21 kcal/mol
3,AGTGCCACGTGATGGC,0.2 kcal/mol
4,TATGTCACGTGATCTG,0.18 kcal/mol
5,CTGATCACGTGGTTTA,0.11 kcal/mol
6,TGATGCACGTGTTGTG,-0.06 kcal/mol
7,TATGGCACGTGGTCAT,-0.25 kcal/mol
8,AAAGACACGTGGTTTA,0.09 kcal/mol
9,TGTGGCACGTGGCAGA,-0.25 kcal/mol
10,ATAGACACGTGCTGGT,-0.03 kcal/mol
11,ATACACACGTGGTTGT,-0.11 kcal/mol
12,TTTTTCACGTGTGTAT,0.27 kcal/mol
13,AGTTTCACGTGGCAAT,0.2 kcal/mol
14,TGGGCCACGTGAATAT,0.27 kcal/mol
15,AATCGCACGTGTATGG,-0.06 kcal/mol
16,GATGTCACGTGGCATT,0.23 kcal/mol
17,TTTGTCACGTGACTAG,0.27 kcal/mol
18,TACTGCACGTGGTTTA,0.08 kcal/mol
19,GTTGACACGTGTGAGG,0.13 kcal/mol
20,AACTTCACGTGGGGGG,0.2 kcal/mol
21,GGAGGCACGTGATAGG,-0.01 kcal/mol
22,AGATCCACGTGGGAGG,-0.04 kcal/mol
23,GGCGACACGTGGGGAT,0.05 kcal/mol

row,Sequence,relative binding free energy
1,GTGAGCACGTGGGTAG,-0.22 kcal/mol
2,TAATGCACGTGTTTTG,-0.03 kcal/mol
3,CTTGTCACGTGGAGTG,0.03 kcal/mol
4,AGTTGCACGTGTATGG,0.08 kcal/mol
5,TTGGGCACGTGACAGG,-0.03 kcal/mol
6,ATTGGCACGTGTGTAG,-0.13 kcal/mol
7,ATGATCACGTGTTCGT,0.16 kcal/mol
8,AATCGCACGTGTGGGA,0.12 kcal/mol
9,TTTAACACGTGTCATT,0.12 kcal/mol
10,GAATGCACGTGGGGAT,-0.2 kcal/mol
11,TCAGTCACGTGGAATG,0.1 kcal/mol
12,TTGGACACGTGTGTTC,0.26 kcal/mol
13,ATTCTCACGTGTAAGG,0.16 kcal/mol
14,ACTTACACGTGGGTGG,-0.04 kcal/mol
15,GGTGACACGTGGGTGG,-0.12 kcal/mol
16,CTAGTCACGTGTTGAT,-0.01 kcal/mol
17,ATAGACACGTGGATTA,0.12 kcal/mol
18,GATTGCACGTGCAGTG,0.07 kcal/mol
19,AGAGACACGTGGAGGC,0.08 kcal/mol
20,TTAGTCACGTGGACGA,0.08 kcal/mol
21,CGTGACACGTGATGGT,0.17 kcal/mol
22,TATGACACGTGCTTGG,-0.11 kcal/mol
23,TATTTCACGTGGTGAA,0.18 kcal/mol
